Source: article PMC4336329 (PLoS ONE, 2015)
In all, about 310,000 compounds went through this assay and about 2,200 (0.71%) showed an effect of 50% or more. The effect is printed as a negative number. The list shows a part of the results.

target: human ether-à-go-go-related gene (hERG) potassium channel (human, UniProt Q12809); assay: primary screen, population patch clamp on CHO cells stably expressing hERG
Sequence (Q12809 whole entry, looked up): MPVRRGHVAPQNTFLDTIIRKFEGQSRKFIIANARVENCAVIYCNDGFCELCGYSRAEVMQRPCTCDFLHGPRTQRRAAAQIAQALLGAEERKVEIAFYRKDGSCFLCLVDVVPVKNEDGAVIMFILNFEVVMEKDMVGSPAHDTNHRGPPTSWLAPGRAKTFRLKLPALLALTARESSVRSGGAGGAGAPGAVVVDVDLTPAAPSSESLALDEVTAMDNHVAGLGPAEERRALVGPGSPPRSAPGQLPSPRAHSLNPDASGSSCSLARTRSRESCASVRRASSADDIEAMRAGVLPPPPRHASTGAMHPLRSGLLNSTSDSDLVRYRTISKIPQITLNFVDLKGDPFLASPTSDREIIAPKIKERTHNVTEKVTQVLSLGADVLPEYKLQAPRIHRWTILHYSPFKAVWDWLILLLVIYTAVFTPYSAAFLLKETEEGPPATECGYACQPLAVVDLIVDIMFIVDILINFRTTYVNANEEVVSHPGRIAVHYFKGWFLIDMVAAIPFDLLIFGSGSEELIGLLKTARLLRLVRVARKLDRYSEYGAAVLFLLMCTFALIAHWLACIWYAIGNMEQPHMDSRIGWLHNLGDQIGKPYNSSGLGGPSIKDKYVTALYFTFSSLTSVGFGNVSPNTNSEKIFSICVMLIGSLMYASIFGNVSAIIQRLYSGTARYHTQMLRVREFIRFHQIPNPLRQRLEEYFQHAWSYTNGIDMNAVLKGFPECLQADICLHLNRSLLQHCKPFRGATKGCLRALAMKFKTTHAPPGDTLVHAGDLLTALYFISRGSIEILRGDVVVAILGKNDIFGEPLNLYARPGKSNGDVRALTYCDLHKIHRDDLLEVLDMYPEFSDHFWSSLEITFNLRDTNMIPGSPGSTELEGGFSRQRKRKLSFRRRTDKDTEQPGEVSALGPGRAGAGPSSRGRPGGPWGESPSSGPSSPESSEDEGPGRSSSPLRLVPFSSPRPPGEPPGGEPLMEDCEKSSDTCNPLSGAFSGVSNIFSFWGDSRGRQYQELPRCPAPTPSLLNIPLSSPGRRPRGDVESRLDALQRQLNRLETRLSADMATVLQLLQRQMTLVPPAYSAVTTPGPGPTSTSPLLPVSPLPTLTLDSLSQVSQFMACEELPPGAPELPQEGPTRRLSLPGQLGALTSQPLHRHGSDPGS

Compound | hERG current change (%, negative = inhibition) at 1uM [%]
COc1ccc(CNn2c(-c3cccs3)nc3ccccc3c2=O)cc1OC | -2.98
O=[N+]([O-])c1cccc(-c2ccc(/C=N/NC(=S)Nc3cccc(F)c3)o2)c1 | 13.6
CN1CCN(S(=O)(=O)c2cccc(C(=O)Nc3cccc([N+](=O)[O-])c3)c2)CC1 | 3.03
COc1cc(/C=C/C(=O)OCC(=O)NCCC2=CCCCC2)ccc1O | 13.1
Cc1ccccc1N(CC(=O)NCc1ccco1)C(=O)CNS(=O)(=O)c1ccc(F)cc1 | 10.2
CC(=O)Nc1sc2c(c1C(c1ccc(Cl)cc1)N1CCOCC1)CCCC2 (stereo not drawn) | 11.4
COc1cc(OC)c(NC(=O)Cn2cccc2)cc1Cl | 13.5
O=C(c1ccc(-c2ccccc2)cc1)N1CCCC1 | 19.1
O=[N+]([O-])c1ccc(C2=CSC3=NCCN23)cc1 | -0.955
Cc1csc(SCC(=O)Nc2oc(C)c3c(C)n[nH]c(=O)c23)n1 | 1.18
CC(NCC(=O)Nc1cc(S(=O)(=O)N2CCOCC2)ccc1N1CCOCC1)c1ccco1 (stereo not drawn) | 0.0139
Cc1ccc(NC(=O)C2CC(=O)n3c(nc4ccccc43)N2)cc1 (stereo not drawn) | 14.1
COc1cccc(CC(=O)OCC(=O)N(C)CC(=O)Nc2ccc(F)cc2)c1 | -2.81
CCN(CC)c1ccc(C2C(C(=O)OC)=C(C)NC(C)=C2C(=O)OC)cc1 | -6.67
CC(=O)Nc1ccc(-c2cn3ccsc3n2)cc1 | 11.8
CCOC(=O)C1=C(CS(=O)(=O)c2ccccc2)NC(=O)NC1c1cc(OC)c(O)c(OC)c1 (stereo not drawn) | 14.2
Cc1cc(C(=O)OCC(=O)Nc2ncc(C(F)(F)F)cc2Cl)c(C)o1 | 9.64
O=C(CN(C(=O)CNC(=O)c1cccs1)c1ccc(F)cc1)NC1CCCC1 | 9.51
Cc1c(NC(=O)CNCc2ccc3c(c2)OCO3)c(=O)n(-c2ccccc2)n1C.O=C(O)C(=O)O | 2.82
Cc1ccc(/C=N/N=C2/NC(=O)C(CC(=O)N3CCOCC3)S2)cc1 (stereo not drawn) | 12.4
CC1Cc2ccccc2N1C(=S)Nc1ccc(S(N)(=O)=O)cc1 (stereo not drawn) | 3.88
Cc1nn(-c2ccccc2)c2sc(C(=O)N3CCCCC3)cc12 | 9.61

Compound | hERG current change (%, negative = inhibition) at 1uM [%]
Cc1sc2c(c1C)C(=O)/C(=C\Nc1ccccn1)S(=O)(=O)N2C | 12
CC(=O)N1[C@H](Cc2ccccc2)C=C[C@]1(C)C(=O)NCCc1c[nH]c2ccccc12 | 14.7
O=C(COC(=O)c1ccccc1Nc1ccc(SC(F)F)cc1)NC1CC1 | 2.26
Cn1c(COc2ccccc2)nnc1SCC(=O)NCc1ccccc1 | -4.41
Cn1nnc(NC(=O)C(c2ccccc2)c2ccccc2)n1 | 13.5
Cn1cccc1/C=N/NC(=O)Cn1cnc2ccccc21 | -1.94
O=C(O)c1cccc(S(=O)(=O)N2CCOCC2)c1 | -6.4
COC(=O)c1ccc(-c2noc(CN(Cc3ccccn3)CC3CCCO3)n2)cc1 (stereo not drawn) | -6.54
O=C(NC1CCCCC1)C1CCC(=O)N(Cc2cccc(C(F)(F)F)c2)C1 (stereo not drawn) | -11.3
O=C(N/C(=C\c1ccc(Br)cc1)C(=O)N1CCCC1)c1cccs1 | 4.96
COc1ccc(CN(Cc2ccc(C(=O)O)cc2)C(=S)Nc2ccccc2Cl)cc1OC | 13.9
COc1cc(S(=O)(=O)NC2CCCCC2C)ccc1-n1cnnn1 (stereo not drawn) | 4.35
COc1ccc(/C=C/C(=O)Nc2ccc(-n3nncc3-c3ccc(OC)c(OC)c3)cc2)cc1OC | 2.44
O=C(NC(=S)Nc1ccc(N2CCN(C(=O)c3ccccc3)CC2)cc1)c1cccs1 | 12.1
COCCN(C(=O)c1cccc(-n2cnnn2)c1)c1c(N)n(CC(C)C)c(=O)[nH]c1=O | 7.31
N#C/C(=C1/CCCCCN1)c1nnc2n1CCCCC2 | 16.3
CSc1ccccc1NC(=O)CN(C)C(=O)CCc1c[nH]c2ccccc12 | 8.87
N/C(=N\OC(=O)CCn1cccc(C(F)(F)F)c1=O)c1ccc(OC(F)(F)F)cc1 | 3.35
O=C(CCc1ccccc1)OCC(=O)c1cccc([N+](=O)[O-])c1 | 13.5
CN(c1ccc(C(=O)N2CCN(Cc3ccccc3)CC2)cc1)S(=O)(=O)c1ccc(Cl)cc1 | -2.89
C=Cn1cc[n+](CC(=O)c2ccc(Cl)cc2)c1.[Br-] | 14.4
O=C(Nc1ccc(Cl)cc1)c1cc(S(=O)(=O)N2CCOCC2)cs1 | -7.43

Compound | hERG current change (%, negative = inhibition) at 1uM [%]
O=C(OCC(=O)N1CCCCCC1)c1cnc(Cl)c(Cl)c1 | 7.98
CCOc1ccc(C)cc1S(=O)(=O)n1nc(C)cc1C | 2.05
O=C(CNC(=O)CNC(=O)c1ccc(Cl)cc1Cl)NCc1cccc(Cl)c1 | 8.83
COc1ccc(C)cc1NC(=O)c1nnn(Cc2cccc(F)c2)c1N | 6.27
Oc1ccc(-n2nnnc2SCc2c(F)cccc2Cl)cc1 | 8.66
O=C(NCc1ccccc1F)c1ccc(S(=O)(=O)N2CCCCCC2)cc1 | 1.6
O=c1[nH]c(/C=C\c2ccc(O)c(O)c2)nc(O)c1[N+](=O)[O-] | 13.1
Cc1ccc(O)c(C(=O)c2cnc3c(c2)CN(CCC(C)C)C(=O)N3)c1 | 16.6
Cn1c(CNS(=O)(=O)c2ccc(Cl)cc2)cc(=O)n(C)c1=O | 12.2
Cc1nn2c(NCC(C)C)c3c(nc2c1-c1ccccc1)CCC3 | 7.45
CC1CCCCN1C(=O)COC(=O)CNC(=O)c1ccc(Cl)cc1Cl (stereo not drawn) | 11.3
Cc1cc(C)c2c(CC(=O)NC3CCS(=O)(=O)C3)coc2c1 (stereo not drawn) | 15.9
CC1CCN(S(=O)(=O)c2nnc(NC(=O)COc3ccccc3F)s2)CC1 | 4.05
Clc1ccc(OCc2nc(-c3ccncc3)no2)c(Cl)c1 | 7.81
COc1ccccc1Nc1nnc(SCC(=O)c2cc(C)n(CC3CCCO3)c2C)s1 (stereo not drawn) | 9.14
COC(=O)C1=C(N)OC2=C(C(=O)CCC2)C1c1ccccc1OC (stereo not drawn) | 12.5
COc1ccc(N(CC(=O)NCCc2ccc(C)cc2)S(=O)(=O)c2c(C)noc2C)cc1 | 14.2
COC(=O)c1nnn(CC(=O)Nc2cccc(OC)c2)c1C(=O)OC | 18
Cc1ccc(Cn2c(=N)c(C#N)cc3c(=O)n4cccc(C)c4nc32)cc1 | -2.14
COc1cc(/C=C/c2noc(-c3ccccc3O)n2)ccc1OC(C)=O | 7.33
CCOC(=O)c1ccc(NCCOC)c([N+](=O)[O-])c1 | 4.73
COc1ccc(OC)c(NC(=O)Cc2c(C(=O)O)n(C)c3ccccc23)c1 | -0.65

Compound | hERG current change (%, negative = inhibition) at 1uM [%]
COCCNC(=O)c1c[nH]c2ccc(S(=O)(=O)N3CCc4ccccc43)cc2c1=O | 5.88
CCOC(=O)N1CCN(C(=O)c2ccc3c(=O)n(Cc4ccc(Cl)cc4)c(=S)[nH]c3c2)CC1 | 11.6
Cc1ccc(/C=N/NC(=O)c2ccc(NC(=O)c3ccc(Cl)cc3)cc2)o1 | 15.5
Cc1cc(C)c(C)c(S(=O)(=O)N2CCN(c3ccc(O)cc3)CC2)c1C | 15.6
O=c1[nH]c2ccccc2c(O)c1O | 10.9
CSc1ccc(CNc2ccc(C)c(C)c2)cc1 | 12.2
COc1ccccc1N(C)S(=O)(=O)c1ccc(C(=O)Nc2ccncc2)cc1 | 2.5
Cc1ccc(C)c(Oc2cc(NN3CCCCC3)c([N+](=O)[O-])cc2[N+](=O)[O-])c1 | 9.22
O=C(O)CCN1Cc2ccccc2C1=O | 15.6
c1ccc2sc(NCC3CCCO3)nc2c1 (stereo not drawn) | 22.2
COc1cc(OC)cc(C(=O)NCC(=O)OCC(=O)Nc2ccc3c(c2)OCO3)c1 | 3.94
Cc1c(C(=O)O)oc2c1/C(=N\O)CC(C)(C)C2 | 2.91
COc1ccc(S(=O)(=O)N2c3ccccc3OCC2C(C)(C)C)cc1 (stereo not drawn) | 15.8
O=C(C1CC1)N1N=C(C2CCCCC2)CC1(O)C(F)(F)F (stereo not drawn) | 1.15
CCn1c(SCC(=O)Nc2ccccc2)nc2c1c(=O)n(C)c(=O)n2C | 12.2
C/C(=N\NC(=O)NC1CCCCC1)c1ccc(OC(F)F)cc1OC(F)F | 1.93
CCN1CCN(C(=O)c2sc3nc(C)nc(N4CCC(C)CC4)c3c2C)CC1 | 2.48
COc1ccccc1NC(=O)Cc1csc(NC(=S)Nc2ccc(C)cc2)n1 | 5.08
COC(=O)C(=Nc1ccccc1)/C(C(=O)C(=O)N(C)c1ccccc1)=C(\O)c1ccc(Cl)cc1 | 8.72
COc1ccc(C(C)(C)C)cc1NC(=O)CCCn1c(=O)oc2ccccc21 | 5.41
CCc1nn2cc(C(=O)c3cc(Cl)ccc3O)cnc2c1-c1ccc(F)cc1 | 9.88
